# Source: PMC4336329 (PLoS ONE, 2015)
# The whole screen tested about 310,000 compounds, of which about 14,000 (4.5%) showed an effect of 50% or more. The effect is printed as a negative number. The list shows a part of the results.
# Target: human ether-à-go-go-related gene (hERG) potassium channel (human, UniProt Q12809)
# Assay: primary screen, population patch clamp on CHO cells stably expressing hERG
# 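Also: peak tail current of the secondary pulse compared with the same well before compound.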
# human ether-à-go-go-related gene (hERG) potassium channel, sequence (Q12809 whole entry, looked up): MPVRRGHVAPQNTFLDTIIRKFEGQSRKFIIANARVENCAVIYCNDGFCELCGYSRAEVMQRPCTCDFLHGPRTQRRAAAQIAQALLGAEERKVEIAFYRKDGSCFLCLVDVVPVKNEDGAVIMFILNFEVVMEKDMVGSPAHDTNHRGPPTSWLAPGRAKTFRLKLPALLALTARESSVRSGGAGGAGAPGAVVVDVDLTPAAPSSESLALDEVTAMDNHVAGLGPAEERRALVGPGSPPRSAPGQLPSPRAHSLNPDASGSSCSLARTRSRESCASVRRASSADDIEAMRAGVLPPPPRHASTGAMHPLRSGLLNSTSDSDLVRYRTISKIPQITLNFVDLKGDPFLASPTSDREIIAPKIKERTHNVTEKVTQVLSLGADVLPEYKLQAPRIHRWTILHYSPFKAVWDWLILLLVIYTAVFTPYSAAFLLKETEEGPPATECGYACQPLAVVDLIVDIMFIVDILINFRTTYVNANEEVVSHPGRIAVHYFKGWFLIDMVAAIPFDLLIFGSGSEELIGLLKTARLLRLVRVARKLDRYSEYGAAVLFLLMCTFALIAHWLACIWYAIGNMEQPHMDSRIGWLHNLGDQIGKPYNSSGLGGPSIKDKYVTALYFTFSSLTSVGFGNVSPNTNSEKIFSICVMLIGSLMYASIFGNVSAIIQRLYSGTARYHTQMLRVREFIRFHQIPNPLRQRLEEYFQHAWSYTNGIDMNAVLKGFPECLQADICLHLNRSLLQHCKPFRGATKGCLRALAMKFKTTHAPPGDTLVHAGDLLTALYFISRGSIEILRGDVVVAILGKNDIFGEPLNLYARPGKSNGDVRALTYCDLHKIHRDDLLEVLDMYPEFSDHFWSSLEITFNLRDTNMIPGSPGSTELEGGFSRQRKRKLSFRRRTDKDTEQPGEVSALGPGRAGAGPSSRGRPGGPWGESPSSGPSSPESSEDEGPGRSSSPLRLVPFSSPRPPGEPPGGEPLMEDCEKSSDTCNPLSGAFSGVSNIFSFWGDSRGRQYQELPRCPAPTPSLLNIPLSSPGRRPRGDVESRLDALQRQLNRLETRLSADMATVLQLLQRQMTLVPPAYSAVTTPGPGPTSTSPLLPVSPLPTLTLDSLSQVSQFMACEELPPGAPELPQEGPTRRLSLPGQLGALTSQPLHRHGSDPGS
row,Structure (SMILES),"hERG current change (%, negative = inhibition) at 10uM [%]"
1,COc1cccc(CN2CCNC(=O)C2CC(=O)NCCc2cccc(C)n2)c1OC (centres unmarked),5.74
2,O=c1ccc2cc(S(=O)(=O)Nc3ccc(Br)cc3)ccc2o1,5.32
3,CCCCn1c(N)c(N(CC(C)C)C(=O)C2CCN(S(=O)(=O)c3ccc(OCC)cc3)CC2)c(=O)[nH]c1=O,8.05
4,O=C(OCC(=O)N1CCC(Cc2ccccc2)CC1)c1ccc(CO)cc1,-17
5,O=S(=O)([O-])C(c1ccccc1)[n+]1ccccc1 (centres unmarked),5.87
6,CC(=O)CC(c1ccccc1)S(=O)(=O)c1ccc([N+](=O)[O-])cc1 (centres unmarked),12.8
7,O=C1COc2ccc(C(=O)CCl)cc2N1,-18.9
8,CCOc1cc(C(=S)N2CCCCC2)ccc1OS(=O)(=O)c1ccc(Br)cc1,4.5
9,Cc1ccc(C(=O)Nc2cccc(C(F)(F)F)c2)cc1Nc1cncnc1.O=C(O)C(F)(F)F,-74.3
10,N#Cc1ccc(CN2CCN(C(=O)c3cc(C4CC4)nn3-c3ccccc3)CC2)cc1,-57.2
11,COCCNC(=S)Nc1ccc2[nH]c(=O)[nH]c2c1,-2.76
12,Cc1ccccc1-c1nc2ccccc2[nH]1,-9.77
13,Cc1c(CC(=O)N2CCN(C(=O)C3COc4ccccc4O3)CC2)c(=O)oc2cc(O)ccc12 (centres unmarked),-44.7
14,CCN1CCN(C(=O)c2ccccc2N(Cc2ccccc2)S(=O)(=O)c2ccc(C)cc2)CC1,-53.2
15,Cn1nnnc1SCC(=O)Nc1nc(-c2ccccc2)c(-c2ccccc2)o1,2.83
16,COC(=O)C(C)N(C#N)c1nc(C)cc(C)n1 (centres unmarked),8.78
17,CCN1C(=O)C(=O)N(CC(=O)NC(C)CCc2ccccc2)C1=O (centres unmarked),-8.47
18,CCCC(C(=O)Nc1ccc(S(=O)(=O)N2CCCC2)cc1)c1ccccc1 (centres unmarked),3.52
19,O=C(CSc1nc(=O)n(Cc2ccccn2)c2c1CCC2)Nc1ccc(F)cc1F,-23.7
20,O=C(Nc1ccc(N2CCOCC2)cc1)Nc1cnsn1,-0.748
21,COCCN1Cc2cccc(C(=O)Nc3cccc(C)c3C)c2C1=O,-16.3
22,O=C(NN1C(=O)c2ccccc2C1=O)C1CCCCC1,-3.21
23,Cc1ccc(NC(=O)CSc2nccn2Cc2ccco2)c(C)c1,8.72

row,Structure (SMILES),"hERG current change (%, negative = inhibition) at 10uM [%]"
1,Cc1ccc(S(=O)(=O)Nc2c(O)c3ccccc3oc2=O)cc1C,23.9
2,COc1ccc2c(c1OC)C(=O)N1N=C(c3ccccc3)CC21 (centres unmarked),0.84
3,CC(C)CNc1cc(=O)n(C)c(=O)n1C,14.4
4,O=C(NCC1CCCO1)C(c1ccncc1)N(Cc1ccc(F)cc1)C(=O)CN1C(=O)c2ccccc2S1(=O)=O (centres unmarked),-58.3
5,O=c1cc(CN2CCN(c3ccccc3)CC2)nc2scc(-c3ccccc3)n12,-7.83
6,CN(CC(=O)NC(=O)NCc1ccccc1)Cc1cccc(Cl)c1Cl,-7.9
7,CCS(=O)(=O)Nc1ccc2c(c1)N(C(C)=O)c1ccccc1CC2,-6.43
8,CCCOc1ccc(C2=CC(=O)C[C@H](c3ccc(OC)cc3)C2)cc1,21.7
9,CSc1nnc(C)c(=O)n1COC(=O)COc1ccccc1,12.1
10,O=C(Cn1[nH]c(=O)c2ccccc2c1=O)OCC(=O)c1ccc(F)cc1,24.6
11,COC(=O)C(CC(C)C)NC(=O)c1ccc(F)cc1 (centres unmarked),13.8
12,CN(C)S(=O)(=O)c1cccc(C(=O)OCC(=O)Nc2ccccc2OC(F)F)c1,8.35
13,O=C(Nc1ccccc1)N1CCC(n2c(=O)[nH]c3ccccc32)CC1,-8.18
14,CCCN(CCC)S(=O)(=O)c1cccc(-c2csc(C)n2)c1,-0.748
15,CCOC(=O)C1=C(COC(=O)/C=C/c2cccc(OC)c2)NC(=O)NC1C (centres unmarked),-5.72
16,C/C(=C\c1ccccc1)C(=O)n1nnc2ccccc21,6.32
17,COc1ccc(CC(=O)N2CCN(c3ccc(C4=NNC(=O)CC4C)cc3)CC2)cc1 (centres unmarked),9.66
18,CCC(=O)Nc1cc2c(C)cc(=O)oc2cc1C,-14.2
19,COc1ccc(NS(=O)(=O)c2cccc(NC(=O)C3=NN(c4ccccc4)C(=O)CC3)c2)cc1,-35.1
20,O=C(NCCN1CCOCC1)c1cccs1,9.07
21,COc1cccc(C(=O)NCC(=O)OCc2ccc(F)cc2Cl)c1,12.5
22,COc1ccc(Br)cc1-c1noc(-c2ccccc2)n1,9.67
23,CCc1cccc(NC(=S)N(CCOC)C(C)c2ccco2)c1 (centres unmarked),-2.48

row,Structure (SMILES),"hERG current change (%, negative = inhibition) at 10uM [%]"
1,COc1ccc(NC(=O)C2CC(c3ccc(Cl)cc3)=NO2)cc1OC (centres unmarked),-4.68
2,CC(=NCCN1CCOCC1)c1c(O)n(C2CCCCC2)c(=O)[nH]c1=O,-15.3
3,Cc1cc(NC(=O)Cc2c(F)cccc2Cl)no1,11.1
4,NS(=O)(=O)c1ccc(NC(=O)c2ccc(S(=O)(=O)N3CCOCC3)o2)cc1,10
5,O=S(=O)(O)c1nc2ccccc2[nH]1,3.93
6,CCOC(=O)NC(NC(=S)Nc1ccccc1[N+](=O)[O-])C(Cl)(Cl)Cl (centres unmarked),-13.1
7,O=C(/C=C/c1c(F)cccc1Cl)Nc1ncccn1,43.5
8,CCOC(=O)CN1C(=O)N[C@@H](c2cccc(C(F)(F)F)c2)C(C(C)=O)=C1C,11.8
9,O=C(COC(=O)c1ccc[nH]c1=O)NC1CCCCCCC1,9.76
10,O=C(c1ccc(C(F)(F)F)cc1)N1CCN(S(=O)(=O)c2ccc3c(c2)OCCCO3)CC1,-6.27
11,NS(=O)(=O)c1ccc2nc(NC(=O)Nc3ccc(F)cc3)sc2c1,6.61
12,O=C(Cc1c(C(=O)O)[nH]c2ccccc12)NCCN1CCN(c2ccccc2F)CC1,-1.46
13,COc1ccccc1N1C(=O)C(Cl)=C(N2CCCC2)C1=O,-16.9
14,O=C(Cn1cnc2c(NC(=O)OCc3ccccc3)ncnc21)NCc1ccccn1,-7.38
15,O=C(NCC(=O)N1CCCC(C(F)(F)F)C1)c1ccc2ccccc2c1 (centres unmarked),-11.3
16,O=C1C2C3C=CC(C3)C2C(=O)N1c1ccc(S(=O)(=O)Nc2nccs2)cc1 (centres unmarked),17.3
17,COc1cc(/C=N/N=C(\N)c2nonc2N)cc(OC)c1OC,9.55
18,COc1ccc(Cl)cc1NC(=S)Nc1ccccc1F,15.3
19,CCc1ccc(C(=O)NCc2ccc(Cl)cc2Cl)cc1,-11.9
20,Cc1ccc(S(=O)(=O)c2nc(NN(C)C)sc2Cl)cc1,-5.48
21,COc1cccc(NC(=O)CC2COc3ccccc3O2)c1 (centres unmarked),9.43
22,Cc1ccc(S(=O)(=O)NCC(=O)NCC(=O)N2CCC(C)CC2)cc1,5.63
23,Cc1ccc(NC(=O)Cc2c[nH]c3ccccc23)cc1S(=O)(=O)N1CCCCCC1,14.1

row,Structure (SMILES),"hERG current change (%, negative = inhibition) at 10uM [%]"
1,CN(CC(=O)Nc1cccc(F)c1)C(=O)C1(c2ccccc2)CC1,11.3
2,COc1ccc(/C=C2\N=C(C)OC2=O)cc1[N+](=O)[O-],15.1
3,O=C(Cc1ccc(Br)cc1)NC1CCCCC1,-6.87
4,CC(C)n1ncc2c(C(=O)Nc3cccc(S(=O)(=O)N(C)C)c3)cc(C3CC3)nc21,-8.66
5,COC(=O)c1ccc(CSc2nc3ccccc3c(=O)n2N)cc1,16.2
6,COc1ccc(-c2cc(C(F)(F)F)n3nc(C(=O)N4CCOCC4)c(Cl)c3n2)cc1,-18.4
7,CC1=CC(C)C2C(=O)N(CCC[N+](C)(C)C)C(=O)C2C1.[I-] (centres unmarked),16.4
8,O=C(c1cccs1)N1CCN(S(=O)(=O)N2CCCCC2)CC1,-4.93
9,Cc1occc1C(=O)N/N=C/c1sc(N2CCOCC2)nc1-c1ccccc1,-6.48
10,Cc1ccc(C)c(NC(=O)C2CCCC2)c1,15.6
11,CSC(=NCc1cccnc1)NS(=O)(=O)c1cccs1,22.8
12,CCN1CCN(c2ccc(S(=O)(=O)N3CCOCC3)cc2NC(=O)c2cc(Cl)nc3ccccc23)CC1,-47.5
13,O=C(NC(=S)Nc1ccc2[nH]c(=O)[nH]c2c1)c1ccccc1Cl,14.7
14,C=C(C)C(=O)N1CC2(CC(c3cccc(NC(=O)/C=C\C=C/C)c3)=NO2)C[C@H]1C(N)=O (some centres unmarked),0.942
15,O=C(Cc1nnc(NC(=O)Nc2ccc(F)cc2)s1)NCc1ccccc1,6.66
16,Cc1ccc(SCC(=O)OCC(=O)N(CC(C)C)c2c(N)n(Cc3ccccc3)c(=O)[nH]c2=O)cc1C,9.3
17,C=C(C)CCOC(=O)C(CC(=O)O)NCc1ccco1 (centres unmarked),9.52
18,COc1cccc(NC(=O)CN(C)C(C)C(=O)NC(=O)NC2CCCCC2)c1 (centres unmarked),-15.7
19,O=C(Nc1ccc(C(=O)N2CCOCC2)cc1)c1cccs1,19.7
20,CN(c1ccc(OCC(=O)OCC(=O)Nc2ccccc2F)cc1)S(=O)(=O)c1cccs1,15.5
